Laboratory results taken from a collection of fitness landscapes (doi:10.1016/j.celrep.2020.107928).
Over roughly 81,000 sequences, “one-hybrid fitness for binding NBS DNA” has its median near -0.1; the highest 2% begin near 0.36. Some of the results follow.

B1: Caulobacter ParB omega fusion; a variant is named by its letters at X, in order, B8GW30 (parent)
chain: MESVVVGEPGMSEGRRGLGRGLSALLGEVDAAPAQAPGEQLGGSREAPIEILQRNPDQPRRTFREEDLEDLSNSIREKGVLQPILVRPSPDTAGEYQIVAGERAWRAAQRAGLKTVPIMVRELDDLAVLEIGIIENVQRADLNVLEEALSYKVLMEKFERTQENIAQTIGKSXSHVANXMRLLXLPDEVQSYLVSGELTAXHARAIAAAADPVALAKQIIEGGLSVRETEALARKAPNLSAGKSKGGRPPRVKDTDTQALESDLSSVLGLDVSIDHRGSTGTLTITYATLEQLDDLCNRLTRGI

Variants of: B1
Experiment: one-hybrid fitness for binding NBS DNA (the Noc-binding site; scaled: cognate 1, non-cognate 0); higher = stronger binding
Settings: with NBS DNA site
Summary of the method: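 Selection: bacterial one-hybrid in E. coli USO, HIS3 reporter with the site 19 bp from the promoter, 48 hours at 37°C on M9-minus-histidine plus 0.1 mM IPTG and 5 mM 3-AT. Libraries were Caulobacter ParB with four randomised specificity codons, sequenced on Illumina before and after selection. Fitness is the rescaled log change in variant-to-wild-type read ratio, anchored to the cognate and non-cognate sites.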

Variant | one-hybrid fitness for binding NBS DNA
CVLA | ≤ 0.2
IRQI | ≤ 0.2
DGPS | ≤ 0.2
TYTW | ≤ 0.2
PFCL | ≤ 0.2
NWAC | ≤ 0.2
HEST | ≤ 0.2
LFTF | ≤ 0.2
MGSS | ≤ 0.2
QDEK | ≤ 0.2
EEGR | ≤ 0.2
RAAF | ≤ 0.2
LTRV | ≤ 0.2
MAFR | ≤ 0.2
KLNA | ≤ 0.2
TRSK | ≤ 0.2
QVGA | ≤ 0.2
QRYL | ≤ 0.2
QLCS | 0.289
ENRH | ≤ 0.2
LWSM | ≤ 0.2
ESVW | ≤ 0.2
DWKT | ≤ 0.2
KANM | ≤ 0.2
HNPF | ≤ 0.2
SCYG | ≤ 0.2

Variant | one-hybrid fitness for binding NBS DNA
KPHW | ≤ 0.2
GISS | ≤ 0.2
ACST | ≤ 0.2
SEEF | ≤ 0.2
HPTD | ≤ 0.2
STPW | ≤ 0.2
PTKE | ≤ 0.2
SVLP | ≤ 0.2
NFLV | ≤ 0.2
TCEY | ≤ 0.2
PWKQ | ≤ 0.2
LMST | ≤ 0.2
QHHY | ≤ 0.2
VSVK | ≤ 0.2
QLMG | ≤ 0.2
VPVR | ≤ 0.2
RVQM | ≤ 0.2
KRKP | ≤ 0.2
CPTV | ≤ 0.2
KCNT | 0.207
LGHP | ≤ 0.2
RPKI | ≤ 0.2
FGCR | ≤ 0.2
QSDD | ≤ 0.2
DFLR | ≤ 0.2
AQYA | ≤ 0.2

Variant | one-hybrid fitness for binding NBS DNA
NADQ | ≤ 0.2
RSGI | ≤ 0.2
TFIR | ≤ 0.2
CTLC | ≤ 0.2
RKWP | ≤ 0.2
GALC | ≤ 0.2
NVKF | ≤ 0.2
CRHW | ≤ 0.2
LDYT | ≤ 0.2
IRVV | ≤ 0.2
TVTC | ≤ 0.2
TGNQ | ≤ 0.2
RPHE | ≤ 0.2
RVHT | 0.487
CLSD | ≤ 0.2
PYHE | ≤ 0.2
PDKL | ≤ 0.2
AYYN | ≤ 0.2
QTTK | 0.206
GHCW | ≤ 0.2
TIES | ≤ 0.2
SDVN | ≤ 0.2
PTPG | ≤ 0.2
NSRQ | ≤ 0.2
LCYL | ≤ 0.2
LVDL | ≤ 0.2

Variant | one-hybrid fitness for binding NBS DNA
QTQR | 0.757
QMIS | 0.289
PDDH | ≤ 0.2
AYRG | ≤ 0.2
AHQS | ≤ 0.2
GRAC | ≤ 0.2
NALD | ≤ 0.2
QCKE | 0.297
MTLW | ≤ 0.2
PSHS | ≤ 0.2
YFPS | ≤ 0.2
SERS | ≤ 0.2
CDYG | ≤ 0.2
RLLR | 0.32
RATW | ≤ 0.2
RMPS | ≤ 0.2
LPDE | ≤ 0.2
NDIS | ≤ 0.2
YKRR | 0.316
MRAC | ≤ 0.2
PILA | ≤ 0.2
SGHR | ≤ 0.2
MQRT | ≤ 0.2
DTAA | ≤ 0.2
FAIS | ≤ 0.2
MCPC | ≤ 0.2

Variant | one-hybrid fitness for binding NBS DNA
FTTV | ≤ 0.2
RSPH | ≤ 0.2
HSIN | ≤ 0.2
DQVT | ≤ 0.2
NCML | ≤ 0.2
QTPN | ≤ 0.2
HGRY | ≤ 0.2
AWQC | ≤ 0.2
FNNT | ≤ 0.2
SDEF | ≤ 0.2
KRFA | 0.277
GAHH | ≤ 0.2
GHRW | ≤ 0.2
PDCM | ≤ 0.2
DRKY | ≤ 0.2
NVQF | ≤ 0.2
HYPI | ≤ 0.2
WTKK | ≤ 0.2
HDPA | ≤ 0.2
TDHH | ≤ 0.2
PEQR | ≤ 0.2
QWTT | ≤ 0.2
SHTL | ≤ 0.2
QMCD | ≤ 0.2
MYHP | ≤ 0.2
GNRM | ≤ 0.2

Variant | one-hybrid fitness for binding NBS DNA
TRCV | ≤ 0.2
STEA | ≤ 0.2
CTQL | ≤ 0.2
AVSG | ≤ 0.2
VNWG | ≤ 0.2
VWKV | ≤ 0.2
QKIG | ≤ 0.2
QHSN | ≤ 0.2
QSAA | 0.273
AHCV | ≤ 0.2
GGRQ | ≤ 0.2
QSNM | ≤ 0.2
HRPN | ≤ 0.2
NQQS | ≤ 0.2
MMRS | ≤ 0.2
TIHD | ≤ 0.2
ELWR | ≤ 0.2
EAPY | ≤ 0.2
TVQL | ≤ 0.2
ESTS | ≤ 0.2
YPLF | ≤ 0.2
DMMG | ≤ 0.2
YGRC | ≤ 0.2
